Source: PMC6602471
The other results are listed elsewhere or left out. At the low end of the ranking the order means little.

What follows are sequences tested against T1, ETS1 (UniProt P14921) (assay: custom PBM). Conditions: custom protein-binding microarray; buffer, salt, pH and temperature not stated; high values mean tight binding; double strand, one strand shown.
T1 sequence: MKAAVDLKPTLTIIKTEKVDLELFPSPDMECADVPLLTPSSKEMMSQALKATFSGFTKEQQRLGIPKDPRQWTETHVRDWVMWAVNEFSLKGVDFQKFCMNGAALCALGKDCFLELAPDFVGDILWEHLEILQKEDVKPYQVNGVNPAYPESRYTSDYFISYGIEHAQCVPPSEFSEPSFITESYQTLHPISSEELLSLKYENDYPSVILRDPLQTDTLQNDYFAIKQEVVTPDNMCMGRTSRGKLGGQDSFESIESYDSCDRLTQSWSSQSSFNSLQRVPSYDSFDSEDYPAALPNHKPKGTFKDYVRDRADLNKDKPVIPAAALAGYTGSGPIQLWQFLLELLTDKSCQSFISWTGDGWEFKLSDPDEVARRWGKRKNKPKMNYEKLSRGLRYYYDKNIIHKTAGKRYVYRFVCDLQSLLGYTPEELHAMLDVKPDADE
“GATTAATTTCTGCTCTTATTCGCACGTGCCATAACAGTCTTGATTCGCTTGACGCTGCTG” gave a binding signal (log fluorescence intensity) of 8.42. “CACAATTTTTACAGTAATGTAGGACGCGTAACTCCTGTCTTGATTCGCTTGACGCTGCTG” showed a binding signal (log fluorescence intensity) of 8.22. Sequence “CGGAAGTGTCGTAAACGTGGGATATCCGGTTCTTCTGTCTTGATTCGCTTGACGCTGCTG” has a binding signal (log fluorescence intensity) of 11.6. “TGAAAAAGGCCCAGGGTAACACCGGAAGTGGGCTTAGTCTTGATTCGCTTGACGCTGCTG” showed a binding signal (log fluorescence intensity) of 11.8. Work on “CACAATTTTTACAGTAATGTAGCACGCGTAAATCCTGTCTTGATTCGCTTGACGCTGCTG” yielded a binding signal (log fluorescence intensity) of 8.32. Sequence “GCTTCTGCGGTGCATACCCCACCGGATGTGACCCCGGTCTTGATTCGCTTGACGCTGCTG” has a binding signal (log fluorescence intensity) of 10.3. Work on “TGTCGGGTAAGGGGATGTAGATCACGTGAATGAAAAGTCTTGATTCGCTTGACGCTGCTG” yielded a binding signal (log fluorescence intensity) of 8.25. For “TAAAGGGAAGACGGTTGTGCTAGTTCCGGGTATTAAGTCTTGATTCGCTTGACGCTGCTG”, the binding signal (log fluorescence intensity) was 8.6. Work on “CTGGGACTTGACCCAACTGTGCCACGTGGGTCGTTTGTCTTGATTCGCTTGACGCTGCTG” yielded a binding signal (log fluorescence intensity) of 8.21. With “GTGTATAGGATCCCATCCAACACACGTGTTAACATGGTCTTGATTCGCTTGACGCTGCTG” the binding signal (log fluorescence intensity) was 8.34. Work on “TAAAGGGACGACGGTTGTGGTAGTTCCGGGTATTAAGTCTTGATTCGCTTGACGCTGCTG” yielded a binding signal (log fluorescence intensity) of 8.43. Sequence “GCTGCTGCGGTGCATACCCCACCGGATGTGACCCGGGTCTTGATTCGCTTGACGCTGCTG” has a binding signal (log fluorescence intensity) of 10.2. With “TCCGGCTACCAGCTCCACCCACTTCAGGCCTTGTGGGTCTTGATTCGCTTGACGCTGCTG” the binding signal (log fluorescence intensity) was 8.17. Work on “TAAAGGGAAGACGGTTGTGTTAGTTCCGGGTATTAAGTCTTGATTCGCTTGACGCTGCTG” yielded a binding signal (log fluorescence intensity) of 8.47. “GGAAAAAGGCCCAGGGTAACACCGGACGTGGGCTTAGTCTTGATTCGCTTGACGCTGCTG” gave a binding signal (log fluorescence intensity) of 8.8. “GATTAATTTCTGCCCTTATTCGTACGTGCCATAACAGTCTTGATTCGCTTGACGCTGCTG” was tested, and the binding signal (log fluorescence intensity) was 8.36. With “GTGTATAGGATCCCATCCAACACCCGTGTTAAAATGGTCTTGATTCGCTTGACGCTGCTG” the binding signal (log fluorescence intensity) was 8.24. In the case of “CTGGGACTTGATCCAACTCTGCCACGTGGGTCGTTTGTCTTGATTCGCTTGACGCTGCTG”, the binding signal (log fluorescence intensity) is reported as 8.12. “CGGAAGGGTCGTAAACGTCGGATATCCGGTTCTTCTGTCTTGATTCGCTTGACGCTGCTG” gave a binding signal (log fluorescence intensity) of 11.6. “TCCGGCTACCAGCTCCACCCACTTCAGGTCTTGTAGGTCTTGATTCGCTTGACGCTGCTG” gave a binding signal (log fluorescence intensity) of 8.3. Work on “CACAATTTTTACAGTAATGTAGCTCGCGTAACTCCTGTCTTGATTCGCTTGACGCTGCTG” yielded a binding signal (log fluorescence intensity) of 8.35. In the case of “CGGAAGTGTCGTAAACGTCGGATATCCGGGTCTTCTGTCTTGATTCGCTTGACGCTGCTG”, the binding signal (log fluorescence intensity) is reported as 10.2. Work on “GCTGCTGCGGTGCATACCCCACCGGATGTGACTCCGGTCTTGATTCGCTTGACGCTGCTG” yielded a binding signal (log fluorescence intensity) of 10.6. For “GCTGCTGCGGTGCATACCTCACCGGATGTGACCCCGGTCTTGATTCGCTTGACGCTGCTG”, the binding signal (log fluorescence intensity) was 9.97. “GCTGCTGCGGTGCATACCCCACCCGATGTGACCCCGGTCTTGATTCGCTTGACGCTGCTG” was tested, and the binding signal (log fluorescence intensity) was 8.07. Sequence “GATTAATTTCTGCCCTTATTCGCACGAGCCATAACAGTCTTGATTCGCTTGACGCTGCTG” has a binding signal (log fluorescence intensity) of 8.21. Work on “TAAAGGGAAGACGGTTGTGGTAGTTCCGGGTATTACGTCTTGATTCGCTTGACGCTGCTG” yielded a binding signal (log fluorescence intensity) of 8.47. “CTGGGACTTGACCCAACTCTACCACGTGGGTCGTTTGTCTTGATTCGCTTGACGCTGCTG” showed a binding signal (log fluorescence intensity) of 8.11. With “TACTGACTTATATATGCGAGTGCACATGAATAGACCGTCTTGATTCGCTTGACGCTGCTG” the binding signal (log fluorescence intensity) was 8.33. “TACTGACTTATATATGCGAATGCACATGACTAGACCGTCTTGATTCGCTTGACGCTGCTG” showed a binding signal (log fluorescence intensity) of 8.23. With “TGCTGACTTATATATGCGAATGCACATGAATAGACCGTCTTGATTCGCTTGACGCTGCTG” the binding signal (log fluorescence intensity) was 8.14. Work on “CTGGGACTTGACCCAACTCTGCCACGTGGGTCGTTGGTCTTGATTCGCTTGACGCTGCTG” yielded a binding signal (log fluorescence intensity) of 8.3. For “AGAAAAAGGCCCAGGGTAACACCGGAAGTGGGCTTAGTCTTGATTCGCTTGACGCTGCTG”, the binding signal (log fluorescence intensity) was 11.9. Work on “CAGCATAGGACATCTTCCCTGAAGCAATTGATAACCGTCTTGATTCGCTTGACGCTGCTG” yielded a binding signal (log fluorescence intensity) of 8.27. “TCCGGCTACCAGCTCCACCCACTTCAGGCCTTGTCGGTCTTGATTCGCTTGACGCTGCTG” was tested, and the binding signal (log fluorescence intensity) was 8.43. “TAAAGGGAAGACGGTTGTGGTAGTTCTGGGTATTAAGTCTTGATTCGCTTGACGCTGCTG” was tested, and the binding signal (log fluorescence intensity) was 8.17. For “GATTAATTTCTGCCCTTATTCGCACGTGCCATAATAGTCTTGATTCGCTTGACGCTGCTG”, the binding signal (log fluorescence intensity) was 8.19. For “GGAACAAGGCCCAGGGTAACACCGGAAGTGGGCTTAGTCTTGATTCGCTTGACGCTGCTG”, the binding signal (log fluorescence intensity) was 11.9. For “TTTCGGGTAAGGGAATGTAGATCACGTGAATGAAAAGTCTTGATTCGCTTGACGCTGCTG”, the binding signal (log fluorescence intensity) was 7.9. “CGGAAGTGTCGTAAATGTCGGATATCCGGTTCTTCTGTCTTGATTCGCTTGACGCTGCTG” showed a binding signal (log fluorescence intensity) of 11.9. “GCTGCTGCGGTGCATACCCCACCGGTTGTGACCCCGGTCTTGATTCGCTTGACGCTGCTG” gave a binding signal (log fluorescence intensity) of 8.34. Sequence “CAGCATAGGACTTCTTCCCTGAAGCAATGGATAACCGTCTTGATTCGCTTGACGCTGCTG” has a binding signal (log fluorescence intensity) of 8.19. Sequence “TAAAGGGAAGACGGTTGTGGTGGTTCCGGGTATTAAGTCTTGATTCGCTTGACGCTGCTG” has a binding signal (log fluorescence intensity) of 8.48. “CACAATTTTTACAGTAATGTAGCACGCGTGACTCCTGTCTTGATTCGCTTGACGCTGCTG” showed a binding signal (log fluorescence intensity) of 8.55. For “GCTGCTGCGGTGCATACCCCACCGGATGTAACCCCGGTCTTGATTCGCTTGACGCTGCTG”, the binding signal (log fluorescence intensity) was 10. “GTGTATAGGATCCCATCCAACAAACGTGTTAAAATGGTCTTGATTCGCTTGACGCTGCTG” was tested, and the binding signal (log fluorescence intensity) was 8.24. “GTGTATAGGATCCCATCCAACACACGTGTTAAAAGGGTCTTGATTCGCTTGACGCTGCTG” gave a binding signal (log fluorescence intensity) of 8.24. Sequence “TCCGGCTGCCAGCTCCACCCACTTCAGGCCTTGTAGGTCTTGATTCGCTTGACGCTGCTG” has a binding signal (log fluorescence intensity) of 8.34. Work on “CGGAAGTGTCGTAAACGTCGGATATACGGTTCTTCTGTCTTGATTCGCTTGACGCTGCTG” yielded a binding signal (log fluorescence intensity) of 9.21. For “TAAAGGGAAGACGGTTGTGGTAGTTACGGGTATTAAGTCTTGATTCGCTTGACGCTGCTG”, the binding signal (log fluorescence intensity) was 8.37. “GATTAAATTCTGCCCTTATTCGCACGTGCCATAACAGTCTTGATTCGCTTGACGCTGCTG” was tested, and the binding signal (log fluorescence intensity) was 8.29. Sequence “TACTGACTTATATATGCGAATGCACATGAATAGACGGTCTTGATTCGCTTGACGCTGCTG” has a binding signal (log fluorescence intensity) of 8.24.
